Structures are written as SMILES. “And” between values parts separate entries of the source, which are not always exact repeats. Identical values can stand only once. Hit rate of the full screen: of about 110,000 compounds, about 230 (0.21%) showed an effect of 50% or more. Some of the results follow.
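Note: 30 min substrate incubation versus DMSO and 10 µM JCP410 controls.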

Chain of DPAP1 (Q8IIJ9 whole entry, looked up): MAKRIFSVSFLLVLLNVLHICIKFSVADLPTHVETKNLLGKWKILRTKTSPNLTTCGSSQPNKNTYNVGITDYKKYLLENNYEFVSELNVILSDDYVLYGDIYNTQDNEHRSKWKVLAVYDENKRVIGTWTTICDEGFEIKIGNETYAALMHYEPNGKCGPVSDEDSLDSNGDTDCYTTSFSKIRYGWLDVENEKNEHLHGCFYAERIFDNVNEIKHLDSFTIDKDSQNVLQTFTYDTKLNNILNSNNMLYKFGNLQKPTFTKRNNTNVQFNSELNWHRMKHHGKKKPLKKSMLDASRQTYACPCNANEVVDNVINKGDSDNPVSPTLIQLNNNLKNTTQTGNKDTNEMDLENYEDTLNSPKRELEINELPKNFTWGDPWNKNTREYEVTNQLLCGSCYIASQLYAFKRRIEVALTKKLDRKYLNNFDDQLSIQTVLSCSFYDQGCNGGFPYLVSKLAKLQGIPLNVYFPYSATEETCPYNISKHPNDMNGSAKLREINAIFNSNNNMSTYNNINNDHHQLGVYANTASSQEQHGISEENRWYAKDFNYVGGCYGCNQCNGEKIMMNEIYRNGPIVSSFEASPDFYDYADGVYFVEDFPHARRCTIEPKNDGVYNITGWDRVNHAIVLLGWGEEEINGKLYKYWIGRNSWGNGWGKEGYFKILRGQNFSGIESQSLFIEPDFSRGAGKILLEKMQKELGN

This assay addresses DPAP1 (Plasmodium falciparum, UniProt Q8IIJ9). Kind of assay: primary screen, percent inhibition; read by cleavage of a fluorogenic dipeptide substrate; higher = more effect of the substance. Further details: species or system P. falciparum D10 trophozoite lysates; single well.
Consider `O=C(Cn1ncn2c(cc3ccccc32)c1=O)NCc1ccccc1`, for which the “% Inhibition @ 10 uM” value was -3.47%.

For `CCn1nc(C)c(NC(=O)c2ccc(Cl)cc2)c1C`, the “% Inhibition @ 10 uM” value was 11.9%.

As for `Cn1c(C2=C(N)N(Cc3ccccc3Cl)CC2=O)nc2ccccc21`, the “% Inhibition @ 10 uM” value was found to be 0.486%.

As to `CCOC(=O)N1CCN(c2cc(C)nc3nc(-c4ccc(OC)cc4)nn23)CC1`, the “% Inhibition @ 10 uM” value is 0.758%.

As for `CC(=O)c1ccc(NC(=O)C2C3CC/C=C\CCC32)cc1` (stereo not drawn), the “% Inhibition @ 10 uM” value is on record as 3.69%.

`Cc1c(Cl)cccc1NC(C)CCc1ccc(O)cc1` (stereo not drawn): the “% Inhibition @ 10 uM” value is -5.44%.

Turning to `CC(C)Oc1ccc(NC(N)=O)cc1`, the “% Inhibition @ 10 uM” value was -1.76%.

`O=C(Nc1cccc(Cl)c1)c1ccc(F)cc1`: the “% Inhibition @ 10 uM” value is 2.47%.

For `CC(C)(C)C(=O)NCCc1nc2ccccc2n1CCc1ccccc1`, the “% Inhibition @ 10 uM” value was determined as 4.3%.

Turning to `Cc1ccc(CSc2n[nH]c(N)n2)c(C)c1`, the “% Inhibition @ 10 uM” value is listed as -3.36%.

Take `N=C1/C(=C/c2ccc(SCc3ccccc3)o2)C(=O)N=C2SC=CN12`: the “% Inhibition @ 10 uM” value is recorded as -9.07%.

On to `COc1ccc(CN2CCN(Cc3cc(OC)c(OC)c(OC)c3)CC2)cc1Br`, for which the “% Inhibition @ 10 uM” value is listed as -3.49%.

In the case of `CCOC(=O)c1sc(N2C(=O)C(O)=C(C(=O)c3ccco3)C2c2ccco2)nc1C` (stereo not drawn), the “% Inhibition @ 10 uM” value is on record as 3.8%.

`CC1(C)CC(=O)C(/C=N/CCN2CCN(C(=O)Cc3ccc(Cl)cc3)CC2)=C(O)C1`: the “% Inhibition @ 10 uM” value is 4.32% and 1.26%.

With `CCN(CC)CCN1CC(=O)C(c2nc3ccccc3[nH]2)=C1N`, the “% Inhibition @ 10 uM” value is -1.22%.

`CCOc1cc(C2C=C(c3ccc(OC)cc3)Nc3nnnn32)ccc1OC(F)F` (stereo not drawn): the “% Inhibition @ 10 uM” value is -3.37%.

Take `CCOC(=O)c1c(C)[nH]c(C)c1S(=O)(=O)N(C)Cc1ccco1`: the “% Inhibition @ 10 uM” value is -10%.

With `CCN1C(C(=O)c2ccccc2)=C(OC(=O)c2ccccc2Cl)c2ccccc2S1(=O)=O`, the “% Inhibition @ 10 uM” value stood at 3.74%.

On to `CCC(C)[C@@H](C(=O)NCc1ccc(F)cc1)N1Cc2ccccc2C1=O` (stereo partly drawn), for which the “% Inhibition @ 10 uM” value is given as -2.25%.

For `CC1=C(c2ccc(C)c(C)c2)S(=O)(=O)N(CC(=O)NCc2ccccc2Cl)C1=O`, the “% Inhibition @ 10 uM” value is reported as 0.762%.

Turning to `O=C(CC(c1ccccc1)c1c(O)c2ccccc2oc1=O)c1ccc(-c2ccccc2)cc1` (stereo not drawn), the “% Inhibition @ 10 uM” value is -3.38%.

For the compound `Cc1oc2c(c1C(=O)NC(C)(C)C)C(=O)c1ccccc1C2=O`, the “% Inhibition @ 10 uM” value is -5.41%.

Turning to `O=C(O)CCNCc1cccs1`, the “% Inhibition @ 10 uM” value was found to be 4.61%.

For `O=C(COc1ccc(Cl)cc1)Nc1ccccn1`, the “% Inhibition @ 10 uM” value was determined as 5.59%.

Consider `O=C(NCCO)c1cccc2c1-c1ccccc1C2=O`, for which the “% Inhibition @ 10 uM” value is on record as 1.05%.

Regarding `Cc1noc(C)c1CCC(=O)O`, the “% Inhibition @ 10 uM” value is given as 2.29%.

`COc1ccc(CCNc2cnn(C34C[C@@H]5C[C@@H](CC(C(=O)O)(C5)C3)C4)c(=O)c2Cl)cc1OC`: the “% Inhibition @ 10 uM” value is given as -2.8%.

In the case of `O=c1[nH]c2ccccc2c(=O)n1CCSc1ccc(Cl)cc1`, the “% Inhibition @ 10 uM” value was 1.92%.

As for `CC(C)C(=O)/N=C1\SC2CS(=O)(=O)CC2N1CCc1ccccc1` (stereo not drawn), the “% Inhibition @ 10 uM” value was -1.15%.

In the case of `NC(=O)CN(c1ccc(F)cc1)S(=O)(=O)c1ccc2c(c1)OCCO2`, the “% Inhibition @ 10 uM” value turned out to be 14.6%.

Take `O=C(Nc1ccc(F)cc1F)c1cc2nc(C(F)F)cc(C(F)F)n2n1`: the “% Inhibition @ 10 uM” value is -3.72%.

As for `CC(O)CN(CC(C)O)CC(c1ccccc1)c1ccccc1` (stereo not drawn), the “% Inhibition @ 10 uM” value is -8.99%.

Regarding `Cc1ccc(S(=O)(=O)c2nnn3c2nc(NC(C)c2ccccc2)c2ccccc23)cc1` (stereo not drawn), the “% Inhibition @ 10 uM” value is recorded as -12.6%.

Regarding `COc1ccc(-c2c(Cc3ccccc3)nn3c(O)c4c(nc23)CCCC4)cc1`, the “% Inhibition @ 10 uM” value was determined as 3.32%.

Consider `c1cncc(-c2nn3c(Cn4nnc5ccccc54)nnc3s2)c1`, for which the “% Inhibition @ 10 uM” value worked out at 4.47%.

With `CSc1ncc(C(=O)Nc2cccnc2)c(C(F)(F)F)n1`, the “% Inhibition @ 10 uM” value is reported as -0.401%.

In the case of `COc1ccccc1CN1CCCC1`, the “% Inhibition @ 10 uM” value amounted to 1.08%.

With `CCc1c(C#N)c(N)nc(SCC(=O)c2cc3ccccc3oc2=O)c1C#N`, the “% Inhibition @ 10 uM” value is recorded as -4.26%.

Take `O=C(c1cccc(F)c1)N1CCN(Cc2ccccc2)CC1`: the “% Inhibition @ 10 uM” value turned out to be 11%.

With `CCOc1ccc(NS(=O)(=O)c2ccc(NC(=O)c3ccccc3)cc2)cc1`, the “% Inhibition @ 10 uM” value is 0.727%.

On to `Cc1ccc(NC(=O)CCn2cnc3onc(-c4ccc(F)cc4)c3c2=O)nc1`, for which the “% Inhibition @ 10 uM” value was 4.58%.

Take `COc1cccc(-c2cc(C(=O)NC3CC3)c3ccccc3n2)c1`: the “% Inhibition @ 10 uM” value worked out at 2.08%.

Consider `Cc1cccc(NC(=O)C(NC(=O)c2ccccc2)C(C)C)n1` (stereo not drawn), for which the “% Inhibition @ 10 uM” value is reported as -8.55%.

Consider `CC12CC=CCC1C(=O)N(c1ccc(Br)cc1)C2=O` (stereo not drawn), for which the “% Inhibition @ 10 uM” value is recorded as -4.71%.

On to `CC(C)(C)NC(=O)c1cnn(-c2ccccc2)c1-n1cccc1`, for which the “% Inhibition @ 10 uM” value was 6.16%.

In the case of `C/C(=N\Cc1ccc(Cl)cc1)C1=C(O)c2ccccc2C1=O`, the “% Inhibition @ 10 uM” value was -4.68%.

As for `CC(C)c1ccc(S(=O)(=O)NCC(=O)O)cc1`, the “% Inhibition @ 10 uM” value is reported as -4.85%.

Turning to `Cc1ccccc1CNC(=O)c1ccc(CN(c2ccccc2)S(C)(=O)=O)cc1`, the “% Inhibition @ 10 uM” value is on record as -3.71%.

Regarding `O=C(CCc1nnc2n(Cc3ccc(Cl)cc3)c(=O)c3ccccc3n12)N1CCc2ccccc2C1`, the “% Inhibition @ 10 uM” value is reported as 0.981%.

On to `CC(C)c1cc(C(C)C)c(S(=O)(=O)N2CCCC2)c(C(C)C)c1`, for which the “% Inhibition @ 10 uM” value came to 3.54%.

In the case of `O=C(NC1(C(F)(F)F)C(=O)Nc2c1c(=O)[nH]c(=O)n2-c1ccccc1)c1ccccc1F` (stereo not drawn), the “% Inhibition @ 10 uM” value was determined as 3.8%.

Source of the values: PMC6919601, “Identification of Plasmodium dipeptidyl aminopeptidase allosteric inhibitors by high throughput screening” (PLoS ONE, 2019).
